{"source": "PubChem BioAssay AID493005", "about": "(National Center for Advancing Translational Sciences (NCATS), 2010)", "note": "In all, about 340,000 compounds went through this assay and fewer than 10 were called active. The inconclusive results got no clear call from the source; some entries with a clear call stand among them for comparison. The call rests on the fitted dose curve; in most records, active means well fitted inhibition curve with a large enough effect in the main read-out, with a control signal flat (not every such curve was filed as active); inconclusive means small, poorly fitted or top-dose-only effect, or effect the other way, or a change in a side signal; inactive means no such curve, though single readings can be large or run the other way. Where the call is inconclusive, the potency comes from a doubtful curve fit. A note “side channel” means that the fit belongs to a control or component signal, not to the main read-out. Potency means the concentration at half of the fitted maximal effect; tags describe the fitted curve by direction and shape or compound fluorescence and quenching.", "data": [{"target": "Tumor susceptibility gene 101 protein (Homo sapiens) (UniProt Q99816)", "sequence (Q99816 whole entry, looked up, the tested form may be a part)": "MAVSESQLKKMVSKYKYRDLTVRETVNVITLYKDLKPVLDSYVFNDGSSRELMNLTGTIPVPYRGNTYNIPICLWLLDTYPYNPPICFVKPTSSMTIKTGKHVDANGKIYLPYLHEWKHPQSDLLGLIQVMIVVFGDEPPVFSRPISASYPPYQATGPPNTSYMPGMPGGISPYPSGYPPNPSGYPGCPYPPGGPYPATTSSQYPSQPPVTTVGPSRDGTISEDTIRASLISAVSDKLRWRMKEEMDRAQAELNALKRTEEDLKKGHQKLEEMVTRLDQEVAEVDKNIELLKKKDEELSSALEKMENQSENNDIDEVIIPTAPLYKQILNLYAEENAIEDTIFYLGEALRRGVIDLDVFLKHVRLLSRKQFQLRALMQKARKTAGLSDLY", "test": "qHTS Assay for Iinhibitors of HIV-1 Budding by Blocking the Interaction of PTAP/TSG101; on activity change, negative = inhibition: % of control where 0% means no effect", "settings": "Fluorescence polarization, FITC-PTAP peptide / Tsg101 binding; activity change, negative = inhibition: at 115 µM (top of the series)", "how_it_was_run": "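Compounds were pin-transferred onto Tsg101 binding domain (10 uM final) in HEPES pH 7.5 buffer, then FITC-PTAP peptide was added at 50 nM final. After 20 min at RT, polarization reported peptide displacement across a qHTS concentration series.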", "values": [{"smiles": "Cc1cc(C)c(NC(=O)COC(=O)c2cc([N+](=O)[O-])ccc2N2CCOCC2)c(C)c1", "activity change, negative = inhibition": "inactive: -3.51%"}, {"smiles": "COc1c([N+](=O)[O-])c(=O)n(-c2ccccc2)c2ccccc12", "Potency": "inconclusive: 56.2 µM [falling, partial curve, poor fit]"}, {"smiles": "O=C(Cn1cncn1)N/N=C/c1c2ccccc2cc2ccccc12", "Potency": "inconclusive: 79.4 µM [fluorescent, side channel, partial curve, poor fit]"}, {"smiles": "CCN=C(Nc1cccc(F)c1)SC1CC(=O)N(c2ccc(OC)cc2)C1=O", "note": "(stereo unspecified)", "Potency": "inconclusive: 89.1 µM [quencher, side channel, partial curve, poor fit]"}, {"smiles": "Cc1ccc(C(=O)Cn2cncn2)cc1", "activity change, negative = inhibition": "inactive: -0.445%"}, {"smiles": "CCCCOc1ccc(C2OC34CCCCC3C(C#N)(C#N)C2(C#N)C(=N)O4)cc1", "note": "(stereo unspecified)", "Potency": "inconclusive: 56.2 µM [fluorescent, side channel, partial curve, poor fit]"}, {"smiles": "O=C1c2cccc3c(O)ccc(c23)C(=O)N1Cc1ccccc1", "Potency": "inconclusive: 56.2 µM [fluorescent, side channel, partial curve]"}, {"smiles": "O=C(Nc1ccc(F)cc1)c1nn(-c2ccccc2)c(=O)cc1Cl", "activity change, negative = inhibition": "inactive: 0.189%"}, {"smiles": "Cc1ccc(O)c(C(=O)c2cc(C#N)c(=O)n(-c3c(C)n(C)n(-c4ccccc4)c3=O)c2)c1", "Potency": "inconclusive: 79.4 µM [fluorescent, side channel, partial curve, poor fit]"}, {"smiles": "COCCCNCCOCCSc1ccc(Cl)cc1", "activity change, negative = inhibition": "inactive: -3.65%"}, {"smiles": "CCc1ccc2nc(N(CCCN(C)C)C(=O)c3ccc(S(=O)(=O)N(C)C4CCCCC4)cc3)sc2c1", "Potency": "inconclusive: 63.1 µM [fluorescent, side channel, partial curve, poor fit]"}, {"smiles": "O=C(O)CCCCCN1C(=O)/C(=C/c2cn(-c3ccccc3)nc2-c2cccs2)SC1=S", "Potency": "inconclusive: 89.1 µM [fluorescent, single point]"}, {"smiles": "COc1ccc(/C=C2\\CC/C(=C\\c3ccc(OC)cc3OC)C2=O)c(OC)c1", "Potency": "inconclusive: 44.7 µM [fluorescent, side channel, partial curve, poor fit]"}, {"smiles": "Cc1ccc(NS(=O)(=O)c2cc(C(=O)O)ccc2Cl)cc1", "activity change, negative = inhibition": "inactive: -8.22%"}, {"smiles": "CC(C)C[C@H](NC(=O)OC(C)(C)C)C(=O)N/N=C/C1=Cc2ccccc2OC1C", "note": "(stereo partly specified)", "Potency": "inconclusive: 22.4 µM [quencher, side channel, partial curve, poor fit]"}, {"smiles": "CC1=CC(=C2N=C(c3ccccc3)OC2=O)C=C(C)O1", "Potency": "inconclusive: 79.4 µM [fluorescent, single point]"}, {"smiles": "CCOc1ccc(Cn2c3ccc(OC)cc3c3nc4ccccc4nc32)cc1", "Potency": "inconclusive: 50.1 µM [fluorescent, side channel, partial curve, poor fit]"}, {"smiles": "CNC(=O)c1c(NC(=O)c2ccc(S(=O)(=O)N(C)c3ccccc3)cc2)sc2c1CCN(C(C)C)C2", "Potency": "inconclusive: 56.2 µM [fluorescent, side channel, partial curve, poor fit]"}, {"smiles": "CCC(C)(C)NC(=O)C(c1ccncc1)N(Cc1cccs1)C(=O)Cn1nnc2ccccc21", "note": "(stereo unspecified)", "activity change, negative = inhibition": "inactive: 2.8%"}, {"smiles": "CCN1C(=O)/C(=C/C2=Cc3ccccc3OC2C)SC1=S", "note": "(stereo unspecified)", "Potency": "inconclusive: 50.1 µM [fluorescent, side channel, partial curve, poor fit]"}, {"smiles": "N#CC(C#N)=C1C=C2C=C(N3CCOCC3)CCC2CC1", "note": "(stereo unspecified)", "Potency": "inconclusive: 17.8 µM [fluorescent, side channel, partial curve, poor fit]"}, {"smiles": "O=C(CCN1C(=O)/C(=C/c2cccs2)SC1=S)Nc1ccccn1", "Potency": "inconclusive: 56.2 µM [fluorescent, side channel, partial curve, poor fit]"}, {"smiles": "COc1ccccc1/C=C/C=C1\\Oc2c(ccc(O)c2CN(C)C)C1=O", "Potency": "inconclusive: 56.2 µM [fluorescent, side channel, partial curve, poor fit]"}, {"smiles": "COc1ccc([N+](=O)[O-])cc1NC(=S)Nc1ccccc1", "activity change, negative = inhibition": "inactive: -2.93%"}, {"smiles": "O=C1C(=Cc2cccn2-c2ccc(O)cc2)C(=O)c2ccccc21", "Potency": "inconclusive: 56.2 µM [fluorescent, side channel, partial curve, poor fit]"}, {"smiles": "C#CCOCCOCCOCCNc1nc(N2CCN(C(=O)CCCCCCCCCCNC(=O)[C@H]([C@@H](C)CC)n3cc(CCCCN=C(N)N)nn3)CC2)nc(N2CCN(C(=O)CCCCCCCCCCNC(=O)[C@H](CO)n3cc(CCCSC)nn3)CC2)n1", "Potency": "inconclusive: 89.1 µM [fluorescent, side channel, partial curve, poor fit]"}, {"smiles": "CCOc1ccccc1NC(=O)c1ccc2c(c1)C(=O)N(CC1CCCO1)C2=O", "note": "(stereo unspecified)", "activity change, negative = inhibition": "inactive: -3.68%"}, {"smiles": "O=C(C=P(c1ccccc1)(c1ccccc1)c1ccccc1)c1ccccc1-c1ccccc1C(=O)C=P(c1ccccc1)(c1ccccc1)c1ccccc1", "Potency": "inconclusive: 79.4 µM [quencher, side channel, single point]"}, {"smiles": "CCn1nc(-c2ccccc2)c2nc3ccccc3nc21", "Potency": "inconclusive: 79.4 µM [fluorescent, side channel, partial curve, poor fit]"}, {"smiles": "C=CCn1cc(/C=C/c2cc[n+](C)cc2)c2ccccc21", "Potency": "inconclusive: 56.2 µM [fluorescent, side channel, partial curve, poor fit]"}, {"smiles": "Cc1nc2cc(C(=O)O)ccc2s1", "activity change, negative = inhibition": "inactive: 0.0499%"}, {"smiles": "Cc1cc(C(F)(F)F)c(C#N)c(SCC(=O)Nc2nc3ccccc3s2)n1", "Potency": "inconclusive: 50.1 µM [fluorescent, side channel, partial curve, poor fit]"}, {"smiles": "Cc1cccc2c1cnn2C(=O)CCC(=O)NCc1ccc(F)cc1", "activity change, negative = inhibition": "inactive: -1.75%"}, {"smiles": "COc1ccc(-c2cc(C(F)(F)F)c3c(N)c(C(=O)NCCSC)sc3n2)cc1", "Potency": "inconclusive: 50.1 µM [fluorescent, side channel, partial curve, poor fit]"}, {"smiles": "CCCN1C(=O)/C(=C\\C=C2\\N(CC)c3ccccc3C2(C)C)SC1=S", "Potency": "inconclusive: 17.8 µM [fluorescent, side channel, full curve]"}, {"smiles": "CC(/C=N/n1c(-c2cccnc2)n[nH]c1=S)=C\\c1ccco1", "activity change, negative = inhibition": "inactive: -3.9%"}, {"smiles": "CCN1C(=O)/C(=C\\C=C\\c2ccccc2[N+](=O)[O-])SC1=S", "activity change, negative = inhibition": "inactive: -6.05%"}, {"smiles": "CCOc1ccccc1/C=N/n1c(C2CCCCC2)n[nH]c1=S", "activity change, negative = inhibition": "inactive: -5.36%"}, {"smiles": "Cc1cccc(C(=O)N2[C@@H](C(C)C)COc3cc(Br)ccc3S2(=O)=O)c1", "activity change, negative = inhibition": "inactive: 0.327%"}, {"smiles": "O=C(CC1CC2CCC1C2)NCc1cccs1", "note": "(stereo unspecified)", "Potency": "inconclusive: 56.2 µM [falling, partial curve, poor fit]"}, {"smiles": "CCOc1ccc(S(=O)(=O)Nc2nc3ccccc3nc2-n2ccc(=NC(=O)c3cccs3)cc2)cc1", "Potency": "inconclusive: 56.2 µM [fluorescent, side channel, partial curve, poor fit]"}, {"smiles": "N#C/C(=C\\c1ccc(N2CCOCC2)o1)C(=O)NCC1CCCO1", "note": "(stereo unspecified)", "Potency": "inconclusive: 56.2 µM [fluorescent, side channel, partial curve, poor fit]"}, {"smiles": "COc1ccc(-c2cc3nc(C)cc(-c4ccc(OC)cc4)n3n2)cc1", "activity change, negative = inhibition": "inactive: 1.05%"}, {"smiles": "Cc1ccc(Nc2nc(N)nc(CSc3nc4ccccc4s3)n2)cc1", "Potency": "inconclusive: 50.1 µM [quencher, side channel, partial curve, poor fit]"}, {"smiles": "COc1cccc(C2CC(c3ccccc3)=NN2S(=O)(=O)c2ccc(C)cc2)c1OC", "note": "(stereo unspecified)", "Potency": "inconclusive: 79.4 µM [fluorescent, side channel, partial curve]"}, {"smiles": "Cc1ccc(N2C(=O)c3cccc4c(N)ccc(c34)C2=O)c2cccnc12", "Potency": "inconclusive: 56.2 µM [fluorescent, side channel, partial curve]"}, {"smiles": "Cc1cccn2c(=O)c3cc(C(=O)NC4CCCCC4)c(=N)n(Cc4ccc(F)cc4)c3nc12", "Potency": "inconclusive: 79.4 µM [fluorescent, side channel, single point]"}, {"smiles": "Cc1cc([N+](=O)[O-])ccc1-c1ccc(/C=N/NC(=O)c2ccc(Br)o2)o1", "Potency": "inconclusive: 39.8 µM [fluorescent, side channel, partial curve, poor fit]"}, {"smiles": "CC(=Nc1ccc(C)cc1C)c1sc2ccccc2c1O", "Potency": "inconclusive: 89.1 µM [fluorescent, single point]"}, {"smiles": "Cc1ccc(-n2nnnc2C(=Cc2ccc(N(C)C)cc2)c2nnnn2-c2ccc(C)cc2)cc1", "Potency": "inconclusive: 79.4 µM [fluorescent, side channel, single point]"}, {"smiles": "CCN(CC)C1=CC2=CC(=C(C#N)C#N)CCC2CC1", "note": "(stereo unspecified)", "Potency": "inconclusive: 25.1 µM [fluorescent, side channel, full curve]"}, {"smiles": "OCC1(Cc2ccccc2)CCCN(Cc2ccc(-c3ccco3)cc2)C1", "note": "(stereo unspecified)", "activity change, negative = inhibition": "inactive: 2.58%"}, {"smiles": "CCOc1cc(/C=C2/C(=O)ON=C2C)ccc1OCc1ccc(F)cc1", "Potency": "inconclusive: 50.1 µM [fluorescent, side channel, partial curve, poor fit]"}, {"smiles": "COC1=CC(=Cc2c(N)n3nc(CC(=O)N4CCOCC4)sc3nc2=O)C=C(OC)C1=O", "Potency": "inconclusive: 50.1 µM [fluorescent, side channel, partial curve, poor fit]"}, {"smiles": "CC(C)(C)c1cnnn1-c1ccc(/C=N/Nc2ccc([N+](=O)[O-])cc2)cc1", "activity change, negative = inhibition": "inactive: -4.87%"}, {"smiles": "O=C1CSC(=S)N1/N=C/c1cc(Br)c(O)c(Br)c1", "Potency": "inconclusive: 50.1 µM [fluorescent, side channel, partial curve, poor fit]"}]}]}
